# Results reported in PubChem BioAssay AID1508624 (National Center for Advancing Translational Sciences (NCATS), 2021).
# About 120 (0.25%) of roughly 48,000 compounds were called active. Not shown: some 4% with an inconclusive outcome. Calls follow the shape of the dose curve; as a rule, active = well fitted activation curve with a large enough effect; inconclusive = small, poorly fitted or top-dose-only effect, or another doubt; inactive = no such curve, though single readings can be large or run the other way. Some of the results follow.
# Experiment: Primary qHTS for Identification of Small Molecule Activators of Huntingtin-Antisense Promoter Activity; also: nearly all actives have a fitted effect of over 55% in size
# Settings: HEK293 HTT-AS promoter firefly luciferase reporter, 24 h; series mostly up to 57.5 µM; activity change, positive = activation: at the top concentration
# Method in brief: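 Luminescence was read after Dual-Glo reagent and a 10 min room-temperature incubation. Values were normalized to vehicle (0% activity) and zero RLU (-100% activity). Reporter HEK293 cells had been exposed to compounds (up to 57.5 uM final) for 24 h.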
row,Compound,"activity change, positive = activation"
1,O=C(CN(c1cc(C(F)(F)F)ccc1Cl)S(=O)(=O)c1ccccc1)NCCc1ccccc1,inactive: -25.9%
2,COc1ccc(-c2c(C#N)c(SCC(=O)Nc3ccc(Br)cc3)nc(C)c2C(=O)Nc2ccccc2)cc1,inactive: -6.36%
3,CCOc1ccc(CCNC(=O)c2ccc3c(c2)N(Cc2ccccc2)C(=O)c2ccccc2S3=O)cc1OCC (stereo not given),inactive: -29.4%
4,COC(=O)c1ccccc1NC(=O)c1cc2c(s1)-c1ccccc1OC2,inactive: -13.7%
5,O=C(CSc1nc(-c2ccccc2)c2ccccc2n1)Nc1ccc(F)cc1,inactive: -4.96%
6,OC(CN1CCN(c2cccc(Cl)c2)CC1)C(c1ccccc1)c1ccccc1 (stereo not given),inactive: -58.4%
7,Cc1cc(C)c(S(=O)(=O)NCCc2cc3ccc(C)cc3[nH]c2=O)c(C)c1,inactive: -15.7%
8,CC1=C(C(=O)N2CCCCC2)C(c2cccc(Cl)c2)n2c(nc3ccccc32)N1 (stereo not given),inactive: -15.1%
9,Cc1ccc(CNC(=O)Cn2cc(S(=O)(=O)Cc3cccc(Cl)c3)c3ccccc32)cc1,inactive: -22.9%
10,COc1ccc(-c2nc3nc(C)cc(Nc4cccc(C(F)(F)F)c4)n3n2)cc1,inactive: -3.29%
11,COc1ccc(NC(=O)COc2ccc(S(=O)(=O)NC3CCCCC3)cc2)c(OC)c1,inactive: -18.3%
12,O=C(CCCc1nc(-c2ccccc2)no1)Nc1cc(C(F)(F)F)cc(C(F)(F)F)c1,inactive: -29.8%
13,Cc1cc(C)c(Cn2c3ccccc3c3cnn(CC(=O)NCc4ccc(Cl)cc4)c(=O)c32)c(C)c1,inactive: -13.6%
14,CCOc1ccc(NC(=O)c2cc(S(=O)(=O)N3CCCC3)c[nH]2)cc1,inactive: -21.6%
15,CC1=C(C(=O)Nc2ccccc2C)C(c2ccco2)n2ncnc2N1 (stereo not given),inactive: -7.79%
16,Cc1sc(-n2cccc2)c(C(C)NC(=O)Nc2ccccc2Cl)c1C (stereo not given),inactive: -26%
17,Cc1noc(Cn2c(=O)c3ccccc3n(CC(=O)Nc3ccc(F)cc3F)c2=O)n1,inactive: -10.3%
18,COc1ccc(CCNC(=O)c2cc(=O)[nH]c3ccc(S(=O)(=O)N4CCCCC4C)cc23)cc1OC (stereo not given),inactive: -40%
19,COc1cc(NC(C)CCCN)c2ncccc2c1 (stereo not given),inactive: -2.55%
20,CCOCCCNC(=O)c1c(NC(=O)c2nc(SC)ncc2Cl)sc2c1CCCC2,inactive: -6.92%

row,Compound,"activity change, positive = activation"
1,Cc1cn2c(=O)cc(COC(=O)c3ccc(NC(=O)C(C)Oc4ccccc4)cc3)nc2s1 (stereo not given),inactive: -9.96%
2,COc1ccc(OC)c(NC(=O)CCNC(=O)Cn2cnc3ccccc3c2=O)c1,inactive: 1.24%
3,O=C(Nc1cc(Cl)cc(Cl)c1)c1cc(S(=O)(=O)N2CCC3(CC2)OCCO3)ccc1F,inactive: -35.7%
4,Fc1ccc(Nc2c(-c3ccccn3)nc3ccc(Cl)cn23)cc1,inactive: -6.55%
5,O=C(NCCc1ccccc1)c1nn(-c2ccccc2Cl)nc1CO,inactive: -22.2%
6,COc1cccc(NC(=O)Cc2csc(COc3cccc(C)c3)n2)c1,inactive: -8.04%
7,CC(C)c1ccc(Cn2ccc3c4c(N)nc(NC5CC5)nc4ccc32)cc1,inactive: -26.1%
8,CCCCC1(COC(=O)CCC(=O)O)C(=O)N(c2ccccc2)N(c2ccccc2)C1=O,inactive: -3.48%
9,COCCn1c(C)cc(O)c(C(c2ccc(OC)cc2)N2CCN(c3ccccc3)CC2)c1=O (stereo not given),inactive: -5.96%
10,Cc1ccc(C)c(-n2nnc(C(=O)Nc3ccc(Br)cc3)c2C)c1,inactive: 5.07%
11,CCOc1ccc(Br)cc1S(=O)(=O)Nc1cccc(-c2ccc(OC)nn2)c1,inactive: -30.5%
12,Cc1ccc(C)c(N2CCN(C(=O)CN3C(=O)COc4ccc(S(=O)(=O)N5CCC(C)CC5)cc43)CC2)c1,inactive: -12.8%
13,COc1ccc(NC(=O)c2c(C)oc3ccc(O)c(CN4CCCCCC4)c23)cc1,inactive: -17.9%
14,Cc1ccc(N2CCN(S(=O)(=O)c3ccc(-n4cnnn4)cc3)CC2)c(C)c1,inactive: -11.2%
15,O=c1[nH]c(=O)n([C@H]2C[C@H](O)[C@@H](CO)O2)cc1Br,inactive: -3.03%
16,Cc1[nH]cnc1-c1ccc(Cl)cc1,inactive: 28.4%
17,Cc1ccc(Cl)cc1N1CCN(C(=O)c2ccc3c(c2)N(Cc2ccccc2)CCS3)CC1,inactive: -12%
18,COc1ccc(-n2c(=O)c3c4c(sc3n(Cc3ccc(C(C)(C)C)cc3)c2=O)CCC4)c(OC)c1,inactive: -27.4%
19,O=C(CSc1nc(=O)n(Cc2ccco2)c2c1CCC2)NCc1ccc(Cl)cc1,inactive: -12.8%
20,Cc1ccc(NC(=O)CCn2c(=O)c3cccn3c3ccccc32)cc1Cl,inactive: -26.7%

row,Compound,"activity change, positive = activation"
1,COc1ccc(N2CC(NC(=O)C(=O)c3c(C)[nH]c4ccccc34)CC2=O)cc1 (stereo not given),inactive: -13.4%
2,COc1cc(OC)c(NC(=O)Cn2cnc3sc(C)c(S(=O)(=O)N4CCC(C)CC4)c3c2=O)cc1Cl,inactive: 19.6%
3,Cc1cc(C)n(-c2nc3ccccc3nc2Nc2cc(Cl)ccc2C)n1,inactive: -1.26%
4,Cc1cc(C)c2nc(N(Cc3cccnc3)C(=O)Cc3ccccc3)sc2c1,inactive: -15.5%
5,Cc1cc(NC(=O)Nc2nnc(N3CCCCC3)s2)ccc1Br,inactive: 14%
6,CCN(Cc1ccccc1)C(=O)Cn1c(=O)n(-c2ccc(Cl)c(Cl)c2)c(=O)c2c(C)c(C(=O)N(C)C)sc21,inactive: -7.52%
7,COc1ccccc1CNC(=O)CSc1nc(=O)[nH]c2c1CCCC2,inactive: -9.97%
8,Cc1cc(C)cc(NC(=O)COCc2cc(-c3ccc4c(c3)OCO4)on2)c1,inactive: 8.49%
9,Cc1ccc(-n2ncc3c(Nc4cccc(C(F)(F)F)c4)ncnc32)cc1C,inactive: 0%
10,COc1cccc(-c2nc(CS(=O)(=O)CC(=O)NCCc3ccc(Cl)cc3)c(C)o2)c1,inactive: -24.4%
11,CC1CCCCN1C(=O)CSc1c2c(nc3cc(Cl)ccc13)CCCC2 (stereo not given),inactive: -15.6%
12,COc1cccc(N2CCN(C(=O)C3CCN(S(=O)(=O)c4cn(C)cn4)CC3)CC2)c1,inactive: -0.488%
13,CCOCCn1c(=O)c2c(nc3n2CCN3c2ccc(C)c(C)c2)n(C)c1=O,inactive: -3.56%
14,CC(C)c1ccc(NC(=O)c2cnc3sc(N4CCOCC4)nn3c2=O)cc1,inactive: -22%
15,NS(=O)(=O)c1ccc(NC(=O)c2csnn2)cc1,inactive: -2.86%
16,COc1ccc(NC(=O)CN(C)S(=O)(=O)c2ccc3c(c2)c(=O)n(C)c(=O)n3C)cc1,inactive: -13.3%
17,COc1ccc(-c2nc3ccc(Cl)cn3c2Nc2ccc(C)cc2)cc1,inactive: -14.2%
18,COc1ccc(OCC2c3cc(OC)c(OC)cc3CCN2C(=O)c2c(F)cccc2F)cc1 (stereo not given),inactive: -18.3%
19,Cc1ccc(C(=O)NCC(c2ccco2)S(=O)(=O)c2ccc(Cl)cc2)cc1C (stereo not given),inactive: -9.09%
20,CCCCNC(=O)c1cn(C)c2ccc(S(=O)(=O)N3CCCC3)cc2c1=O,"inactive: 7.96% [at 11.5 µM, percent change from vehicle, -100% = no light]"
